This note sets out measurements from the RNAGym collection of RNA variant scans (doi:10.1073/pnas.2313332121).

To fix the notation:
B1: TPR 5TU (parent)
chain: GGAUCUUCUCGAUCUAACAAAAAAGACAAAUCUGCCACAAAGCUUGAGAGCAUCUUCGGAUGCAGAGGCGGCAGCCUUCGGUGGCGCGAUAGCGCCAACGUUCUCAACUAUGACACGCAAAACGCGUGCUCCGUUGAAUGGAGUUUAUCAUG

Variants at the background level are over-represented here. Where only a bound is given, the exact number is not on record here.

The variants in this data set derive from B1. The experiment in a line: polymerase ribozyme fitness, log enrichment relative to wild type (log ratio); higher = more active; in vitro selection for triplet polymerase activity. Put shortly: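 A single round of triplicate in vitro selection, including frozen incubation at −7 °C, was applied to PCR-built, transcribed mutant libraries of each subunit of a heterodimeric triplet polymerase ribozyme. Illumina sequencing of input and output libraries retained genotypes with ≥10 input reads and ≥1 read per output. Fitness is the base-2 logarithm of genotype enrichment divided by wild-type enrichment, from inverse-variance-weighted replicate averages.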
For the variant U9C A21C C76A G94A C103A, the “polymerase ribozyme fitness (log ratio)” value was no more than -4.2.

In the case of U9A A12G C14U A23U A40C C76G G86C U90C C118A C131G, the “polymerase ribozyme fitness (log ratio)” value is no more than -4.2.

As for U7G A16C, the “polymerase ribozyme fitness (log ratio)” value was -2.38.

Take C8G G11C A16U G58U A64U C85A A89G C93A C95A C116U A142G U145C: the “polymerase ribozyme fitness (log ratio)” value is no more than -4.2.

Regarding C8A C18G U45G C54G, the “polymerase ribozyme fitness (log ratio)” value is no more than -4.2.

As for U7G G50A G59A G88C G117U A122G, the “polymerase ribozyme fitness (log ratio)” value is no more than -4.2.

For C8A A20U A29C G92U C95G C118A, the “polymerase ribozyme fitness (log ratio)” value is no more than -4.2.

Regarding C8A G94C C95U, the “polymerase ribozyme fitness (log ratio)” value was no more than -4.2.

As to C8U G46C C51U U77C C85U G92C G117U A120G, the “polymerase ribozyme fitness (log ratio)” value was no more than -4.2.

For C8A C14U C54A C99A, the “polymerase ribozyme fitness (log ratio)” value was no more than -4.2.

Take U7G U44A U55A C57U G83A: the “polymerase ribozyme fitness (log ratio)” value was no more than -4.2.

For C8A C14A G48C U82A U104A G143C A150G, the “polymerase ribozyme fitness (log ratio)” value is no more than -4.2.

Regarding U7G G74A C93U C125A, the “polymerase ribozyme fitness (log ratio)” value is no more than -4.2.

C8G A20U C32U C79A C108A C116A A147G C149G: the “polymerase ribozyme fitness (log ratio)” value was no more than -4.2.

As for U9A U15A C93U C103G, the “polymerase ribozyme fitness (log ratio)” value is no more than -4.2.

Consider C8A A19C A24C C27U G74A G84C A121G, for which the “polymerase ribozyme fitness (log ratio)” value was no more than -4.2.

As to C8A U13G A47U C75G U77G G86A, the “polymerase ribozyme fitness (log ratio)” value is no more than -4.2.

C8U A21U G25A A60C C93U C125A: the “polymerase ribozyme fitness (log ratio)” value is no more than -4.2.

As for U9A A40C G83A C93U U135C, the “polymerase ribozyme fitness (log ratio)” value is no more than -4.2.

Take U9A A22G G48A G62A G65A C76G A89C C93G C108A: the “polymerase ribozyme fitness (log ratio)” value is no more than -4.2.

In the case of U7G C10A A16C G50C A73U C99G, the “polymerase ribozyme fitness (log ratio)” value was no more than -4.2.

For U9A A24U G94C U102C G124C, the “polymerase ribozyme fitness (log ratio)” value was no more than -4.2.

Regarding C8A A20U C43G C72G G88A A89C C118U, the “polymerase ribozyme fitness (log ratio)” value is no more than -4.2.

U7C A16U A19C G46C U90G C95A A115U: the “polymerase ribozyme fitness (log ratio)” value was no more than -4.2.

U9A G34A A89U C95A U104A G126C A137U: the “polymerase ribozyme fitness (log ratio)” value was no more than -4.2.

As to C8U A19U C51A G83U C87A, the “polymerase ribozyme fitness (log ratio)” value is no more than -4.2.

As for C8U C27G C57U G67U G68A G86U A98U, the “polymerase ribozyme fitness (log ratio)” value was no more than -4.2.

For U7G C8U G59U G68U A91U A150U, the “polymerase ribozyme fitness (log ratio)” value is no more than -4.2.

On to U9A C35U G84A C85A G88U U101C U146A, for which the “polymerase ribozyme fitness (log ratio)” value is no more than -4.2.

Take U7C G11C G59A G71C C76U G84U A138C: the “polymerase ribozyme fitness (log ratio)” value was no more than -4.2.

Turning to C8G C93G, the “polymerase ribozyme fitness (log ratio)” value is no more than -4.2.

C8U U33A A37C G50A A60U C72A G86A U90A A138G U151G: the “polymerase ribozyme fitness (log ratio)” value was no more than -4.2.

Consider C8G C54A C63G G92A C118A G128A G133U, for which the “polymerase ribozyme fitness (log ratio)” value is no more than -4.2.

With C8U A12G C35A U44A, the “polymerase ribozyme fitness (log ratio)” value was no more than -4.2.

Regarding C8U C43U G48C U55A G92C, the “polymerase ribozyme fitness (log ratio)” value was no more than -4.2.

Turning to U7C A41U U56A G68C C76G C87A A97C G133U, the “polymerase ribozyme fitness (log ratio)” value was no more than -4.2.

For the variant U9A A22C A37U U45A U53A G84A A147U, the “polymerase ribozyme fitness (log ratio)” value is no more than -4.2.

Turning to U7G C85A, the “polymerase ribozyme fitness (log ratio)” value is -3.43.

Consider C8U A47G U90G G133C G143A, for which the “polymerase ribozyme fitness (log ratio)” value is no more than -4.2.

For the variant C8A U45A U53A G58U G59A A60U C93U C108U C116G C125G, the “polymerase ribozyme fitness (log ratio)” value is no more than -4.2.

Consider U9A A41C U44A C63U G70U U82A U90A C95U C118A, for which the “polymerase ribozyme fitness (log ratio)” value was no more than -4.2.

In the case of C8U A21C G42A A52C G92U U102G, the “polymerase ribozyme fitness (log ratio)” value is no more than -4.2.

In the case of U7C C10A G11C A47C U55G A60G C69U A91C G143C, the “polymerase ribozyme fitness (log ratio)” value was no more than -4.2.

As for C8U A37U A40G A91U A98U, the “polymerase ribozyme fitness (log ratio)” value is no more than -4.2.

For the variant U9C A21G G42C G58A U78G C87G, the “polymerase ribozyme fitness (log ratio)” value is no more than -4.2.

Turning to U7G A19G, the “polymerase ribozyme fitness (log ratio)” value was -2.47.

C8A A39U A52G U53A G81U G84U C99G A119U A120U G124U: the “polymerase ribozyme fitness (log ratio)” value is no more than -4.2.

Take U9C A23U A24G C38G A89G A91U: the “polymerase ribozyme fitness (log ratio)” value is no more than -4.2.

For U9C C57G G140C, the “polymerase ribozyme fitness (log ratio)” value is no more than -4.2.

On to U9A A21U C32G G42A U55A U56A C93A U127C A138U, for which the “polymerase ribozyme fitness (log ratio)” value is no more than -4.2.

Take U9A A41U G74A A89G C132U: the “polymerase ribozyme fitness (log ratio)” value was no more than -4.2.

On to C8A A22G A52C C96A U109C U145A, for which the “polymerase ribozyme fitness (log ratio)” value was no more than -4.2.

On to U7G G11U A16G A24C U31G G34U A98G G117C, for which the “polymerase ribozyme fitness (log ratio)” value is no more than -4.2.

Consider C8G A66G, for which the “polymerase ribozyme fitness (log ratio)” value was no more than -4.2.

Turning to C8A C79G G94C A107G G143U C149U, the “polymerase ribozyme fitness (log ratio)” value was no more than -4.2.

Consider C8G C35U A64C A89U A91U U101G A142C, for which the “polymerase ribozyme fitness (log ratio)” value was no more than -4.2.

On to U7A U9C A19C A21U G59U C95G U104A G128U C149U, for which the “polymerase ribozyme fitness (log ratio)” value is no more than -4.2.

On to C8A G71U G83C A91G, for which the “polymerase ribozyme fitness (log ratio)” value is no more than -4.2.

In the case of C8A G25U G46C G48C U127G C132A, the “polymerase ribozyme fitness (log ratio)” value was no more than -4.2.

Regarding C8G A24G U33G G59A G71A G74A U144C, the “polymerase ribozyme fitness (log ratio)” value is no more than -4.2.

Turning to U7G A47G C85U G140C, the “polymerase ribozyme fitness (log ratio)” value is no more than -4.2.

In the case of U7G U56A G81C G128C U139C, the “polymerase ribozyme fitness (log ratio)” value is no more than -4.2.

Consider U7C A12G C14U A22C G67A C85A U109A C118A A142C, for which the “polymerase ribozyme fitness (log ratio)” value is no more than -4.2.

Regarding C8G A30C C57U C85U C87U U127G C129G, the “polymerase ribozyme fitness (log ratio)” value was no more than -4.2.

Turning to U7G A17G C85A A91G G140C, the “polymerase ribozyme fitness (log ratio)” value is no more than -4.2.

Take U7G G48C G84A: the “polymerase ribozyme fitness (log ratio)” value is -3.94.

U9A G34A C72U G88C A106G: the “polymerase ribozyme fitness (log ratio)” value is no more than -4.2.

On to C8G A16G A89G G92U U127G, for which the “polymerase ribozyme fitness (log ratio)” value is no more than -4.2.

On to U9A A39G G68U A91G, for which the “polymerase ribozyme fitness (log ratio)” value was no more than -4.2.

In the case of U9A G11A A26U C96A U104C, the “polymerase ribozyme fitness (log ratio)” value was no more than -4.2.

Turning to U9C A66G C76G G92U C114A, the “polymerase ribozyme fitness (log ratio)” value is no more than -4.2.

For C8U A22U U56A A73G A121G C123U, the “polymerase ribozyme fitness (log ratio)” value was -4.16.

Consider U7C C54U G92A A106G C116G U139A, for which the “polymerase ribozyme fitness (log ratio)” value was no more than -4.2.

Take U7G G50U: the “polymerase ribozyme fitness (log ratio)” value is -3.02.

As to U9A C35U U55A A91C, the “polymerase ribozyme fitness (log ratio)” value is no more than -4.2.

Regarding C8G A49U A91G, the “polymerase ribozyme fitness (log ratio)” value was no more than -4.2.

Take C8G A30G G48A C69G G86A G143U: the “polymerase ribozyme fitness (log ratio)” value was -4.06.

Turning to U9C A30U G58C C76A G94C U104G G136A, the “polymerase ribozyme fitness (log ratio)” value was no more than -4.2.

As for C8U C27G C93A U139C G141C U145G, the “polymerase ribozyme fitness (log ratio)” value was no more than -4.2.

As to U7G A23G U53A C99G C116A C125G A137C, the “polymerase ribozyme fitness (log ratio)” value was no more than -4.2.

Turning to U7G A41C G46C G50A G84A G117A A119G U139A, the “polymerase ribozyme fitness (log ratio)” value is no more than -4.2.

Regarding C8G C75G U82C, the “polymerase ribozyme fitness (log ratio)” value was no more than -4.2.

For the variant C8G U31G C38U A47C A49G U55A G86A, the “polymerase ribozyme fitness (log ratio)” value was no more than -4.2.
